# The campaign covered roughly 360,000 compounds. About 16,000 (4.4%) were called active. The inconclusive results got no clear call from the source; some entries with a clear call stand among them for comparison. Calls come from the whole dose curve; as a rule, active = well fitted inhibition curve with a large enough effect; inconclusive = small, poorly fitted or top-dose-only effect; inactive = no such curve, though single readings can be large or run the other way. Where the call is inconclusive, the potency comes from a doubtful curve fit.
# Biological target: Bromodomain adjacent to zinc finger domain protein 2B (Homo sapiens) (UniProt Q9UIF8)
# Assay: qHTS Assay for Inhibitors of BAZ2B; note: nearly all actives have a fitted effect of over 60% in size
# Settings: AlphaScreen BAZ2B-H3K14Ac peptide displacement; series mostly up to 114 µM
# In short: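 BAZ2B (50 nM) with biotin-H3(5-23)K14Ac peptide (50 nM) in PBS pH 7.4, 0.01% Tween-20, preformed 30 min, then compound 30 min at room temperature; top concentration 110uM. AlphaScreen streptavidin donor/nickel chelate acceptor beads (10 ug/mL final), 20 min dark, signal read.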
# Potency is the fitted concentration of half-maximal effect; tags give direction and shape of the fitted curve.
# UniProt Q9UIF8, sequence (Q9UIF8 whole entry, looked up, the tested form may be a part): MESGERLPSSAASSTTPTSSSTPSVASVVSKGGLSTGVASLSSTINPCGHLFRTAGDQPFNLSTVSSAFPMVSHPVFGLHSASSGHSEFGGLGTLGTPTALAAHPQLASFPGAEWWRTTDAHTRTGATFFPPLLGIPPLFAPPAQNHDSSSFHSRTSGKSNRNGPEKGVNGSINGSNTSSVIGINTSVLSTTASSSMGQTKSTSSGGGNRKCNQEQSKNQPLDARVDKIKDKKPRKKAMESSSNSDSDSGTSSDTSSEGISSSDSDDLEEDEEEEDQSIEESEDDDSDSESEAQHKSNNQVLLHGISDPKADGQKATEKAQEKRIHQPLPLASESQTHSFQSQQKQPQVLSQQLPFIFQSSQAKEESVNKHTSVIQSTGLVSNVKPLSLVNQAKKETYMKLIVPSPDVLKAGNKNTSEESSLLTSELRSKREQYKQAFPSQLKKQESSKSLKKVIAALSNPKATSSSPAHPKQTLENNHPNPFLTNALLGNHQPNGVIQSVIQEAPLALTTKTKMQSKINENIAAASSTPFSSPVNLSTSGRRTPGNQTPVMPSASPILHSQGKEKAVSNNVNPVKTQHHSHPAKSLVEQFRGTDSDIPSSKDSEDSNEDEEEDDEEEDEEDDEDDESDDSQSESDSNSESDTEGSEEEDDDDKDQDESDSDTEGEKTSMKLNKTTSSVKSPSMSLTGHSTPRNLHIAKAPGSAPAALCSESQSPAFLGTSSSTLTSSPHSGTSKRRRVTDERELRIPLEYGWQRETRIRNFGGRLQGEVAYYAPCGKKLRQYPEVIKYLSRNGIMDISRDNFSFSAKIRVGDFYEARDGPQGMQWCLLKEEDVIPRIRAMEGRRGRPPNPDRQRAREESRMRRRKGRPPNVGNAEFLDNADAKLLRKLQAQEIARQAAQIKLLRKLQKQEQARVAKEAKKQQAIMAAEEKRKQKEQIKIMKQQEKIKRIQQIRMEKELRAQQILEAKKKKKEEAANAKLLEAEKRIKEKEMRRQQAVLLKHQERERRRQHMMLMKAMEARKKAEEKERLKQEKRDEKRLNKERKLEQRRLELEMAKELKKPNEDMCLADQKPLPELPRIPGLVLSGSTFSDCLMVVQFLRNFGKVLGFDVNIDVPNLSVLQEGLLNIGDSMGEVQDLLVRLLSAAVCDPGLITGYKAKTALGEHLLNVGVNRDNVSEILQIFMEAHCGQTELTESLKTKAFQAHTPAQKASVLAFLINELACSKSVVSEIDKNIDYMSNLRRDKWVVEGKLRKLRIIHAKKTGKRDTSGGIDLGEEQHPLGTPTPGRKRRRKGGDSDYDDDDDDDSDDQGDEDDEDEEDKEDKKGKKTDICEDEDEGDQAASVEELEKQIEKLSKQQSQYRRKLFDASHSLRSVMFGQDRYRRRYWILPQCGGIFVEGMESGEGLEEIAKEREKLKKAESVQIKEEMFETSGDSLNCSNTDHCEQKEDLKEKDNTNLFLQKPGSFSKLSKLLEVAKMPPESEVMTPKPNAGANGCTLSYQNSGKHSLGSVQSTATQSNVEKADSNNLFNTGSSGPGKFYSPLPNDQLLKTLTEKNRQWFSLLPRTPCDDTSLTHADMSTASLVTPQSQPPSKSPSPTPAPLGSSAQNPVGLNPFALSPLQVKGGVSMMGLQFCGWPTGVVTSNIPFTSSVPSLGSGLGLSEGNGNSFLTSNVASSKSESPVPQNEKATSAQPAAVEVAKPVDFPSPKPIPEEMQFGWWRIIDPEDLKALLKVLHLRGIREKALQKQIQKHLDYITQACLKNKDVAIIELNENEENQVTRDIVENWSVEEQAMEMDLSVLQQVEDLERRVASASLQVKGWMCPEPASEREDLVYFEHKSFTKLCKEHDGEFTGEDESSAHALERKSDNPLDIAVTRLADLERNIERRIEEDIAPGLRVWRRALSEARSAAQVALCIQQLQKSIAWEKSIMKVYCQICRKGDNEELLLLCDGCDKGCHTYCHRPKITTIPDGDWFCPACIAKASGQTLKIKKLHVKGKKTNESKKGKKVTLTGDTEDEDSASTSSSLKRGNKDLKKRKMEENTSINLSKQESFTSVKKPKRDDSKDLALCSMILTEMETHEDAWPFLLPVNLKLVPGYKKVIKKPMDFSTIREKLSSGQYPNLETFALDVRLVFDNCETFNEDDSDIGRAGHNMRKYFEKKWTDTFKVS
row,Compound,Potency
1,CCC1(C)CC(CCN(Cc2ccco2)C(C)=O)(c2ccccc2)CCO1 (configuration not stated),"inconclusive: 79.4 µM [inhibitor, single point]"
2,O=C(Nc1ccc(Nc2ccccc2)cc1)c1ccc(Br)o1,active: 22.4 µM
3,O=C(NCC1CCCO1)c1ccc2c(=O)n(CC3CCCO3)c(=S)[nH]c2c1 (configuration not stated),"inconclusive: 89.1 µM [inhibitor, single point]"
4,Cn1c2ccccc2c(=O)c2c(=O)n(Cc3ccccc3)c(-c3ccc(F)cc3)nc21,inactive
5,O=C(Nc1ncc(Br)s1)C(Cc1ccccc1)n1cccc1 (configuration not stated),active: 44.7 µM
6,CC(=O)N1CCN(CC(=O)Nc2ccc(C)c(S(=O)(=O)N(C)C)c2)CC1,active: 79.4 µM
7,O=C(NC(=S)N(CCc1ccccc1)CCc1ccccc1)c1ccco1,"inconclusive: 25.1 µM [inhibitor, full curve]"
8,CCn1cc(/C=C(\NC(=O)c2ccc(OC)cc2)C(=O)NCCCn2ccnc2)c2ccccc21,"inconclusive: 44.7 µM [inhibitor, partial curve]"
9,Cc1onc(C(=O)Nc2sc3c(c2C(N)=O)CCCC3)c1[N+](=O)[O-],"inconclusive: 79.4 µM [inhibitor, single point]"
10,Cc1cc(C)c(S(=O)(=O)Nc2ccnc(-c3cccnc3)n2)c(C)c1,"inconclusive: 79.4 µM [inhibitor, single point]"
11,CN1CCCC(CC2Oc3ccccc3Sc3ccccc32)C1 (configuration not stated),active: 50.1 µM
12,Nc1nonc1NC(=O)CSc1nc2ccccc2s1,"inconclusive: 89.1 µM [inhibitor, single point]"
13,CCCCC(=O)NC(c1cccc([N+](=O)[O-])c1)c1c(OC(C)=O)ccc2ccccc12 (configuration not stated),"inconclusive: 3.98 µM [inhibitor, full curve, poor fit]"
14,Cc1nc(Nc2c(Cl)cccc2Cl)sc1C(=O)Nc1ccccc1,"inconclusive: 50.1 µM [inhibitor, partial curve]"
15,Oc1ccc(CN2CCN(c3ncccn3)CC2)cc1,"inconclusive: 89.1 µM [inhibitor, single point]"
16,COCC1CCCN(C(=O)c2ccc(OC3CCN(Cc4ccccn4)CC3)cc2)C1 (configuration not stated),inactive
17,Cc1cc(C)cc(OCCCn2ccnc2)c1,"inconclusive: 79.4 µM [inhibitor, single point]"
18,CCn1cnc2cc(NCc3nc4ccccc4n3Cc3ccccc3)ccc21,active: 39.8 µM
19,Cc1nc(N2CCN(Cc3ccc(Cl)cc3)CC2)c2oc3ccccc3c2n1,"inconclusive: 35.5 µM [inhibitor, partial curve]"
20,C=CCn1c(SCC(=O)NC2CCCCC2)nnc1-c1ccccn1,active: 79.4 µM
21,COc1cccc(Cn2cc(C(=O)c3ccccc3)c(=O)c3cc4c(cc32)OCO4)c1,"inconclusive: 31.6 µM [inhibitor, full curve, poor fit]"
22,Cc1ccc(NCc2n[nH]c(=S)n2-c2ccccc2)cc1,"inconclusive: 70.8 µM [inhibitor, partial curve]"
23,Oc1ccc2ccccc2c1N=Nc1ccccc1F,active: 2.82 µM

row,Compound,Potency
1,N=C1/C(=C/c2ccc(-c3cccc(C(=O)O)c3)o2)C(=O)N=C2SC(CC(=O)N3CCOCC3)=NN12,active: 25.1 µM
2,COc1ccc(OC)c(-n2c(Cn3c(-c4ccccn4)nc4ccccc43)n[nH]c2=S)c1,"inconclusive: 89.1 µM [inhibitor, single point]"
3,COc1cc(O)c(C(CC(=O)N2CCN(c3ccccc3)CC2)c2ccc3c(c2)OCO3)c(OC)c1 (configuration not stated),"inconclusive: 31.6 µM [inhibitor, full curve]"
4,COc1cc(OC)c(/C=N/N2CCN(c3ccccc3OC)CC2)c(OC)c1,"inconclusive: 89.1 µM [inhibitor, single point]"
5,Cc1ccc(CNC(=O)CSc2ncc3c(n2)-c2cc(Cl)ccc2N(C)S3(=O)=O)cc1,inactive
6,O=C(COc1cccc2cccnc12)N1CCc2ccccc2C1,"inconclusive: 79.4 µM [inhibitor, partial curve]"
7,Cc1cc(C(=O)COc2cccnc2[N+](=O)[O-])c(C)n1-c1ccccc1F,"inconclusive: 56.2 µM [inhibitor, partial curve]"
8,COc1ccc(-c2ccc(CCC(=O)O)n2CC(C)C)cc1,"inconclusive: 56.2 µM [inhibitor, partial curve]"
9,COc1ccc(C2c3c(-c4ccccc4O)n[nH]c3C(=O)N2CCc2ccc(OC)c(OC)c2)cc1 (configuration not stated),"inconclusive: 31.6 µM [inhibitor, full curve]"
10,Cc1ccc(/C=C2\SC(=S)N(Cc3ccccc3)C2=O)o1,"inconclusive: 3.16 µM [inhibitor, full curve, poor fit]"
11,COc1ccc(Cn2c(CCC(=O)Nc3cc(OC)c(OC)c(OC)c3)nc3cccnc32)cc1,"inconclusive: 79.4 µM [inhibitor, single point]"
12,O=C(CSc1nccn1Cc1ccccc1)NCc1ccco1,"inconclusive: 50.1 µM [inhibitor, partial curve]"
13,CCOC(=O)c1cc(-c2ccc(OC)cc2)n(CCC(=O)Nc2ccccc2OC)c1C,active: 79.4 µM
14,CCOc1ccccc1NC(=O)CN1C(=O)COc2ccc(S(=O)(=O)N3CCOCC3)cc21,inactive
15,Cc1ccc2[nH]c(C(=O)N/N=C/c3ccccc3C(=O)O)c(-c3ccccc3)c2c1,"inconclusive: 89.1 µM [inhibitor, single point]"
16,Cc1cc(C)cc(NC(=O)C(Sc2ncnc3ccccc23)c2ccccc2)c1 (configuration not stated),inactive
17,Cc1cccc(N/N=C/c2ccc(C)s2)c1,"inconclusive: 70.8 µM [inhibitor, single point]"
18,O=C(CCN1C(=O)c2cccnc2C1=O)NC1CCCCCC1,"inconclusive: 100 µM [inhibitor, single point]"
19,CCCC(c1nnnn1C1CCCC1)N1CCN(C(=O)c2ccco2)CC1 (configuration not stated),"inconclusive: 89.1 µM [inhibitor, single point]"
20,CCNC(=O)NC(=O)CSc1nnc(-c2c[nH]c3ccccc23)o1,"inconclusive: 79.4 µM [inhibitor, single point]"
21,Cc1c(Cl)cccc1NC(=O)CC1Oc2ccccc2NC1=O (configuration not stated),inactive
22,Cc1ccccc1COc1ccc(-c2nnn(CC(=O)O)n2)cc1,"inconclusive: 89.1 µM [inhibitor, single point]"
23,O=C(c1ccc2c(c1)N(Cc1ccccc1F)C(=O)c1ccccc1S2(=O)=O)N1CCC(Cc2ccccc2)CC1,"inconclusive: 28.2 µM [inhibitor, single point]"

row,Compound,Potency
1,CCOC(=O)CN1NC2(CCC(C(C)(C)C)CC2)NC1=S (configuration not stated),"inconclusive: 89.1 µM [inhibitor, single point]"
2,O=C(O)c1ccc2c(=O)n3c(nc2c1)/C(=C/c1cccc(O)c1)CC3,"inconclusive: 79.4 µM [inhibitor, single point]"
3,C/C(=N\NC(=O)c1ccc(Br)cc1)C1C(=O)c2ccccc2C1=O,"inconclusive: 79.4 µM [inhibitor, single point]"
4,COc1ccc(C(CC(=O)N2CCN(c3ccccc3)CC2)c2c(OC)cc(OC)c3c(-c4ccccc4)cc(=O)oc23)cc1 (configuration not stated),active: 39.8 µM
5,COc1ccc(NC(=O)CC2C(=O)N(c3cccc(OC)c3)C(=O)N2CCc2cccs2)cc1 (configuration not stated),inactive
6,Cc1ccc2c(c1)c1c3n2CCN(C(=O)C2CC2)C3CCC1 (configuration not stated),"inconclusive: 79.4 µM [inhibitor, single point]"
7,C=CCn1c(C)cc(C(=O)Cn2ncc(Cl)c(Cl)c2=O)c1C,"inconclusive: 89.1 µM [inhibitor, single point]"
8,CC(C)c1ccc(C(N)=S)cc1,"inconclusive: 70.8 µM [inhibitor, single point]"
9,COc1ccc(N2CCN(C(=O)c3ccc(CSc4ccccc4)cc3)CC2)cc1,active: 44.7 µM
10,CCn1nc(C)c2c(-c3ccccc3)cc(=O)n(C(C)C(=O)NCCC(C)C)c21 (configuration not stated),inactive
11,COc1ccc(NC(=O)CN2C(=O)CSC(C)C2=O)c(OC)c1 (configuration not stated),"inconclusive: 89.1 µM [inhibitor, single point]"
12,COc1ccccc1CN(C(=O)CCl)C(C(=O)NC1CCCCC1)c1ccncc1 (configuration not stated),"inconclusive: 89.1 µM [inhibitor, single point]"
13,COc1ccc2c(CC(=O)OCC(=O)Nc3cc(C)c(C)cc3[N+](=O)[O-])coc2c1,"inconclusive: 3.55 µM [inhibitor, full curve]"
14,COc1ccccc1/C=N/NC(=S)Nc1cccnc1,inactive
15,COc1ccc2nc(NC(=O)c3ccccc3F)sc2c1,"inconclusive: 89.1 µM [inhibitor, single point]"
16,Cc1ccc(OCC(=O)NNC(=O)C(=O)NC(C)(C)C)cc1,"inconclusive: 89.1 µM [inhibitor, single point]"
17,Cc1cc(C)cc(OCC(=O)Nc2ccc(S(=O)(=O)Nc3ccccn3)cc2)c1,"inconclusive: 89.1 µM [inhibitor, single point]"
18,CCOC(=O)c1cc(CC)sc1N1C(=O)CC(Sc2ccccc2C(=O)O)C1=O (configuration not stated),active: 63.1 µM
19,CN(C)S(=O)(=O)c1ccc(NC(=O)CN2CCN(C(c3ccccc3)c3ccccc3)CC2)cc1,inactive
20,Cc1ccc(C(C)C)c(OCCSc2nc(-c3ccccc3F)nc3cc(=O)[nH]n23)c1,"inconclusive: 50.1 µM [inhibitor, partial curve, poor fit]"
21,Cc1ncsc1C(=O)N1N=C2/C(=C/c3ccc(N4CCOCC4)cc3)CCCC2C1c1ccc(N2CCOCC2)cc1 (configuration not stated),"inconclusive: 89.1 µM [inhibitor, single point]"
